In patent US20210070829A1 (ZHEJIANG DOER BIOLOGICS, published 2021):

Key:
Experiment in all cases: cell-based or functional assay
Glucagon receptor = molecular target: Glucagon receptor
[1] = molecular target: FGFR/β-Klotho receptor complex
human GLP-1 receptor = human GLP-1 receptor (human, UniProt P43220)

B1: C563 L14F8L9M3 (Fc fusion)
chain: HSQGTFTSDYSSYLDEEAAQDFIEWLKNTGPSSGAPPPSGGGGAGGGGAGGGGAS[human IgG4 Fc with S228P N297A (EU numbers) omitted here]GGGGSGGGGSGGGGSDSSPLLQFGGQVRQRYLYTDDAQQTEAHLEIREDGTVGGAADQSPESLLQLKALKPGVIQILGVKTSRFLCQRPDGALYGSLHFDPEACSFRELLLEDGYNVYQSEAHGLPLHCPGNKSPHRDPAPRGPCRFLPLPGLPPALPEPPGILAPQPPDVGSSDPLAMVGPSQGRSPSYAS
With B1 as the binder, how does the “GCGR agonist activity EC50 (luciferase reporter)” value (shortened to “GCGR agonist activity EC50”) (Glucagon receptor) read?
The value was 1.25 nM.

And the “FGF21 activity EC50 (luciferase reporter)” value (from here on “FGF21 activity EC50”) [1]?
The value was 0.77 nM.

What about the “GLP-1R agonist activity EC50 (luciferase reporter)” value (from here on “GLP-1R agonist activity EC50”) (human GLP-1 receptor) of the same binder?
The value was 1.53 nM.

B2: C488 L9F9L9M2 (Fc fusion)
chain: HSQGTFTSDLSKYLEGQAAQDFVQWMNTGPSSGAPPPSGGGGSGGGGSGGGGS[human IgG4 Fc with S228P F234A L235A (EU numbers) omitted here]GGGGSGGGGSGGGGSHPIPDSSPLLQFGGQVRQRYLYTDDAQQTEAHLEIREDGTVGGAADQSPESLLQLKALKPGVIQILGVKTSRFLCQRPDGALYGSLHFDPEACSFRERLLEDGYNVYQSEAHGLPLHCPGNKSPHRDPAPRGPCRFLPLPGLPPALPEPPGILAPQPPDVGSSDPLSMVGGSQGRSPSYES
For B2, which “GCGR agonist activity EC50” value (Glucagon receptor) is on record?
Its value is 1.34 nM.

What about the “FGF21 activity EC50” value [1] of the same binder?
Its value is 0.73 nM.

What about the “GLP-1R agonist activity EC50” value (human GLP-1 receptor) of the same binder?
The value was 1.71 nM.

B3: C549 L12F4L9M4 (Fc fusion)
chain: HSQGTFTSDVSKYLESRAAQDFVQWMNGGPSSGAPPPSGGGGAGGGGAGGGGAA[human IgG1 Fc with changes omitted here]GGGSGGGGSGGGGSHPIPDSSPLLQFGGQVRQRYLYTDDAQQTEAHLEIREDGTVGGAADQSPESLLQLKALKPGVIQILGVKTSRFLCQRPDGALYGSLHFDPEACSFRERLLEDGYNVYQSEAHGLPLHCPGNKSPHRDPAPRGPCRFLPLPGLPPALPEPPGILAPQPPDVGSSDPLAMVGGSQGRSPSYES
For B3, which “GCGR agonist activity EC50” value (Glucagon receptor) is on record?
The value was 1.44 nM.

What about the “FGF21 activity EC50” value [1] of the same binder?
The value was 0.8 nM.

What about the “GLP-1R agonist activity EC50” value (human GLP-1 receptor) of the same binder?
The value was 1.92 nM.

B4: C673 L8F3L8M8 (Fc fusion)
chain: HSQGTFTSDYSKYLDEEAAQDFIEWLKNTGPSSGAPPPSGGSGGGAGGGGS[human IgG1 Fc with changes omitted here]GGSGGGAGGGGSHPIPDSSPLLQFGGQVRQRYLYTDDAQQTEAHLEIREDGTVGGAADQSPESLLQLKALKPGVIQILGVKTSRFLCQRPDGALYGSLHFDPEACSFRERLLEDGYNVYQSEAHGLPLHLPGNKSPHRDPAPRGPARFLPLPGLPPALPEPPGILAPQPPDVGSSDPLSMVGGSQGRSPSAAS
Which “GCGR agonist activity EC50” value (Glucagon receptor) does the source give for B4 here?
Its value is 1.44 nM.

And the “FGF21 activity EC50” value [1]?
Its value is 1.01 nM.

What about the “GLP-1R agonist activity EC50” value (human GLP-1 receptor) of the same binder?
The value was 1.92 nM.

B5: C555 L10F6L12M1 (Fc fusion)
chain: HSQGTFTSDLSKYLEEQAAQDFVQWMNGGPSSGAPPPSGGGGAGGGGAGGGGA[human IgG4 Fc with S228P (EU numbers) omitted here]GGGGAGGGGAGGGGAAHPIPDSSPLLQFGGQVRQRYLYTDDAQQTEAHLEIREDGTVGGAADQSPESLLQLKALKPGVIQILGVKTSRFLCQRPDGALYGSLHFDPEACSFRERLLEDGYNVYQSEAHGLPLHLPGNKSPHRDPAPRGPARFLPLPGLPPALPEPPGILAPQPPDVGSSDPLSMVGGSQGRSPSYES
How did the “GCGR agonist activity EC50” value (Glucagon receptor) turn out when B5 was run?
The value was 1.22 nM.

And the “FGF21 activity EC50” value [1]?
The value was 0.6 nM.

And the “GLP-1R agonist activity EC50” value (human GLP-1 receptor)?
Its value is 1.37 nM.

B6: C508 L7F4L9M3 (Fc fusion)
chain: HSQGTFTSDYSKYLEEEAVRLFIQWLMNGGPSSGAPPPSGGSGGGSGGGGS[human IgG1 Fc with changes omitted here]GGGSGGGGSGGGGSDSSPLLQFGGQVRQRYLYTDDAQQTEAHLEIREDGTVGGAADQSPESLLQLKALKPGVIQILGVKTSRFLCQRPDGALYGSLHFDPEACSFRELLLEDGYNVYQSEAHGLPLHCPGNKSPHRDPAPRGPCRFLPLPGLPPALPEPPGILAPQPPDVGSSDPLAMVGPSQGRSPSYAS
For B6, which “GCGR agonist activity EC50” value (Glucagon receptor) is on record?
Its value is 3.38 nM.

And the “FGF21 activity EC50” value [1]?
The value was 0.67 nM.

And the “GLP-1R agonist activity EC50” value (human GLP-1 receptor)?
The value was 5.45 nM.

B7: C623 L9F3L10M1 (Fc fusion)
chain: HSQGTFTSDLSKQMDSREAQDFIEWLKNTGPSSGAPPPSGGGGSGGGGSGGGGS[human IgG1 Fc with changes omitted here]GGGGAGGGGAGGGGAHPIPDSSPLLQFGGQVRQRYLYTDDAQQTEAHLEIREDGTVGGAADQSPESLLQLKALKPGVIQILGVKTSRFLCQRPDGALYGSLHFDPEACSFRERLLEDGYNVYQSEAHGLPLHLPGNKSPHRDPAPRGPARFLPLPGLPPALPEPPGILAPQPPDVGSSDPLSMVGGSQGRSPSYES
Which “GCGR agonist activity EC50” value (Glucagon receptor) does the source give for B7 here?
The value was 1.56 nM.

And the “FGF21 activity EC50” value [1]?
The value was 0.74 nM.

What about the “GLP-1R agonist activity EC50” value (human GLP-1 receptor) of the same binder?
The value was 1.88 nM.

B8: C487 L13F7L13M4 (Fc fusion)
chain: HSQGTFTSDLSKYLEGQAAQDFVQWMNGGPSSGAPPPSGGGGSGGGGSGGGGSA[human IgG4 Fc with S228P N297A (EU numbers) omitted here]GGGGSGGGGSGGGGSAHPIPDSSPLLQFGGQVRQRYLYTDDAQQTEAHLEIREDGTVGGAADQSPESLLQLKALKPGVIQILGVKTSRFLCQRPDGALYGSLHFDPEACSFRERLLEDGYNVYQSEAHGLPLHCPGNKSPHRDPAPRGPCRFLPLPGLPPALPEPPGILAPQPPDVGSSDPLAMVGGSQGRSPSYES
Which results are given for B8?
GCGR agonist activity EC50 (luciferase reporter) (Glucagon receptor): 1.47 nM; FGF21 activity EC50 (luciferase reporter) [1]: 0.89 nM; GLP-1R agonist activity EC50 (luciferase reporter) (human GLP-1 receptor): 1.33 nM

B9: C618 L12F4L12M2 (Fc fusion)
chain: HSQGTFTSDLSKQMDSRAAQDFIEWLKNGGPSSGAPPPSGGGGAGGGGAGGGGAA[human IgG1 Fc with changes omitted here]GGGAGGGGAGGGGAAHPIPDSSPLLQFGGQVRQRYLYTDDAQQTEAHLEIREDGTVGGAADQSPESLLQLKALKPGVIQILGVKTSRFLCQRPDGALYGSLHFDPEACSFRERLLEDGYNVYQSEAHGLPLHCPGNKSPHRDPAPRGPCRFLPLPGLPPALPEPPGILAPQPPDVGSSDPLSMVGGSQGRSPSYES
How did the “GCGR agonist activity EC50” value (Glucagon receptor) turn out when B9 was run?
The value was 1.32 nM.

What about the “FGF21 activity EC50” value [1] of the same binder?
Its value is 0.78 nM.

And the “GLP-1R agonist activity EC50” value (human GLP-1 receptor)?
The value was 1.53 nM.

B10: C623 L9F8L9M2 (Fc fusion)
chain: HSQGTFTSDLSKQMDSREAQDFIEWLKNTGPSSGAPPPSGGGGSGGGGSGGGGS[human IgG4 Fc with S228P N297A (EU numbers) omitted here]GGGGSGGGGSGGGGSHPIPDSSPLLQFGGQVRQRYLYTDDAQQTEAHLEIREDGTVGGAADQSPESLLQLKALKPGVIQILGVKTSRFLCQRPDGALYGSLHFDPEACSFRERLLEDGYNVYQSEAHGLPLHCPGNKSPHRDPAPRGPCRFLPLPGLPPALPEPPGILAPQPPDVGSSDPLSMVGGSQGRSPSYES
B10 was tested. Which “GCGR agonist activity EC50” value (Glucagon receptor) did it give?
The value was 1.45 nM.

What about the “FGF21 activity EC50” value [1] of the same binder?
Its value is 0.88 nM.

And the “GLP-1R agonist activity EC50” value (human GLP-1 receptor)?
Its value is 1.93 nM.

B11: C654 L13F9L6M3 (Fc fusion)
chain: HSQGTFTSDYSKQLDSQRAQDFVQWLMNGGPSSGAPPPSGGGGSGGGGSGGGGSA[human IgG4 Fc with S228P F234A L235A (EU numbers) omitted here]GGGGAGGGGADSSPLLQFGGQVRQRYLYTDDAQQTEAHLEIREDGTVGGAADQSPESLLQLKALKPGVIQILGVKTSRFLCQRPDGALYGSLHFDPEACSFRELLLEDGYNVYQSEAHGLPLHCPGNKSPHRDPAPRGPCRFLPLPGLPPALPEPPGILAPQPPDVGSSDPLAMVGPSQGRSPSYAS
Which results are given for B11?
GCGR agonist activity EC50 (luciferase reporter) (Glucagon receptor): 1.25 nM; FGF21 activity EC50 (luciferase reporter) [1]: 0.71 nM; GLP-1R agonist activity EC50 (luciferase reporter) (human GLP-1 receptor): 1.53 nM
